# Measured values from PubChem BioAssay AID1745853 (National Center for Advancing Translational Sciences (NCATS), 2022).
# This is one part of the list. The main result of the screen is listed elsewhere. These columns were measured beside it and carry no call.
# How the values were obtained:
# Assay in all cases: Primary Screen for Target Class Profiling of Small Molecule Inhibitors of Methyltransferases
# [1] = molecular target: Glycine N-methyltransferase (Homo sapiens) (UniProt Q14749); details: purified enzyme, MTase-Glo SAH luminescence; measured here: GNMT inhibition; at 40 µM; stronger effect = lower value
# Summary of the method: (§1)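 Each enzyme was reacted with SAM and its substrate, with compounds tested once at 40 uM; SAH formed was read by MTase-Glo luminescence.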
# [2] = molecular target: Guanidinoacetate N-methyltransferase (Homo sapiens) (UniProt Q14353); details: purified enzyme, MTase-Glo SAH luminescence; measured here: GAMT inhibition; at 40 µM; stronger effect = lower value
# Summary of the method: as §1
# [3] = molecular target: Histamine N-methyltransferase (Homo sapiens) (UniProt P50135); details: purified enzyme, MTase-Glo SAH luminescence; measured here: HNMT inhibition; at 40 µM; stronger effect = lower value
# Summary of the method: as §1
# [4] = molecular target: Nicotinamide N-methyltransferase (Homo sapiens) (UniProt P40261); details: purified enzyme, MTase-Glo SAH luminescence; measured here: NNMT inhibition; at 40 µM; stronger effect = lower value
# Summary of the method: as §1
# [5] = molecular target: Phenylethanolamine N-methyltransferase (Homo sapiens) (UniProt P11086); details: purified enzyme, MTase-Glo SAH luminescence; measured here: PNMT inhibition; at 40 µM; stronger effect = lower value
# Summary of the method: as §1
# % is set by controls: 0 for no effect and ±100 for the full control effect.
Compound,"activity change, negative = inhibition [1]","activity change, negative = inhibition [2]","activity change, negative = inhibition [3]","activity change, negative = inhibition [4]","activity change, negative = inhibition [5]"
CS(=O)(=O)Cc1ccc(-c2cccc(OCc3ccccc3F)c2)nc1,-5.54%,-11.3%,-2.37%,-12.5%,-7.56%
COc1cccc(S(=O)(=O)N2CCC3(CC2)CCC(O)(CN(C)C)CC3)c1,1.35%,0.329%,11.6%,2.9%,6.53%
CCOc1ccccc1CNC(=O)Cn1ccc2cc(S(=O)(=O)N3CCCCC3)ccc21,-3.75%,-1.08%,-12.3%,-12.5%,-6.77%
CC1(C)CC[C@]2(C(=O)O)CC[C@]3(C)C(=CCC4[C@@]5(C)C[C@@H](O)[C@H](O)C(C)(C)C5CC[C@]43C)[C@@H]2[C@@H]1O (stereo not given in full),2.18%,-1.95%,5.31%,-11.7%,-5.91%
CCN(CC)c1cc(CCC(=O)N2CCN(c3cccc(OC)c3)CC2)ccn1,-5.3%,-3.23%,-75.6%,-5.45%,-0.67%
CC1=NOC2(CCN([S+](=O)([O-])c3c(C)noc3C)C2)C1 (stereo not given),-2.04%,2.33%,3.12%,-2.39%,10.8%
Cc1cc(=O)n(CC(=O)NC(C)CCc2ccccc2)c(N2CCc3ccccc3C2)n1 (stereo not given),-2.81%,-4.81%,-1.42%,-1.44%,-7.16%
CCOCCCNC(=O)CCn1ccc2cc(S(=O)(=O)N3CCCCC3)ccc21,-2.76%,5.02%,-1.57%,0.604%,2.91%
CC1CCC(NC(=O)C2(C)Cn3c(ccc3-c3ccco3)C(=O)N2Cc2cccc(Cl)c2)CC1 (stereo not given),-7.32%,2.97%,1.93%,-19.7%,-1.45%
COc1ccc2c(c1)N1C(=O)C[C@@]34C=CC[N@+]5([O-])CC[C@H]2[C@H](CC3)[C@@]145,3.55%,1.68%,9.06%,-7.17%,3.05%
O=C(CCc1nnc2n(Cc3ccc(Cl)cc3)c(=O)c3ccccc3n12)Nc1ccccc1,-3.12%,3.64%,4.21%,-7.6%,-2.47%
Cc1ccc(Cn2c(=O)c3ccccc3n3c(SCC(=O)Nc4ccccc4F)nnc23)cc1,1.06%,2.59%,9.5%,2.52%,2.84%
CC(C)C1c2cccn2CCN1C(=O)Nc1ccccc1C(F)(F)F (stereo not given),16.1%,0.569%,7.02%,7.54%,11.5%
O=C(O)Cc1ccccc1Oc1ccc(Cl)cc1Cl,-9.13%,-11.3%,2.74%,-17%,1.16%
CCOc1ccc(CNC(=O)c2ncn3c2C(=O)N(C2CC2)C(C)(C(=O)NCc2cccc(C)c2)C3)cc1 (stereo not given),-6.32%,4.54%,-3.14%,-2.3%,-0.374%
CN(C(=O)Cn1nc2n(C)c(=O)c3ccc(C(=O)NC4CCCC4)cc3n2c1=O)c1ccccc1,2.79%,4.93%,0.8%,2.97%,1.73%
